The text below walks through data of publication PMC12820563.

The other results are listed elsewhere or left out. The list includes weakly bound sequences.

The assay has as its target T1, MBP-FoxP3dN (UniProt Q99JB6).
T1 sequence: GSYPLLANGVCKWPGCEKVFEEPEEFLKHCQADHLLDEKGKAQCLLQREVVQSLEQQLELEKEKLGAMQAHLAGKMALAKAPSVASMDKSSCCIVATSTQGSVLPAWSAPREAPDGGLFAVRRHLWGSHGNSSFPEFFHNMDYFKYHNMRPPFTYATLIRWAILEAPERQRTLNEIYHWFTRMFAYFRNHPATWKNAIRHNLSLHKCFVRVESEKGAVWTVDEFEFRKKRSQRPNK
Briefly: PD-seq (MBP pull-down with sequencing). The conditions noted are these: 20 mM Tris-HCl pH 7.5, 100 mM NaCl, 1.5 mM MgCl2, 0.4 uM protein, 0.1 uM dsDNA library, 30 min, room temperature, amylose pull-down; high values mean tight binding; double strand, one strand shown.
With “GATGATTGTTCTCCCAGCTGATGAATTTTCTCCTTCGAGTAAACAAATTTTCCTAATCTTTCTGTTCAAGCGCCATCTAC”, the binding signal (RPM ratio (pull-down/input)) amounted to 0.184. Consider “GATGATTGTTCTCCCAGCTGATGAATTCTAATCATCGAGTAAACAAATTTTCCTAATCTTTCTGTTCAAGCGCCATCTAC”, for which the binding signal (RPM ratio (pull-down/input)) was found to be 0.567. To “GATGATTGTTCTCCCAGCTGATGAATTTTTTGGTTCGAGTAAACAAATTTTCCTAATCTTTCTGTTCAAGCGCCATCTAC” belongs 0.282; to “GATGATTGTTCTCCCAGCTGATGAATTACATGAGTCGAGTAAACAAATTTTCCTAATCTTTCTGTTCAAGCGCCATCTAC”, 0.476. The value for “GATGATTGTTCTCCCAGCTGATGAATTAATTACCTCGAGTAAACAAATTTTCCTAATCTTTCTGTTCAAGCGCCATCTAC” was 0.796; that for “GATGATTGTTCTCCCAGCTGATGAATTTCATTACTCGAGTAAACAAATTTTCCTAATCTTTCTGTTCAAGCGCCATCTAC” was 1.32. With “GATGATTGTTCTCCCAGCTGATGAATTGCTCACGTCGAGTAAACAAATTTTCCTAATCTTTCTGTTCAAGCGCCATCTAC”, the binding signal (RPM ratio (pull-down/input)) amounted to 0.552.

Take “GATGATTGTTCTCCCAGCTGATGAATTCGTCCGATCGAGTAAACAAATTTTCCTAATCTTTCTGTTCAAGCGCCATCTAC”: the binding signal (RPM ratio (pull-down/input)) was 0.204. Take “GATGATTGTTCTCCCAGCTGATGAATTAGCAATATCGAGTAAACAAATTTTCCTAATCTTTCTGTTCAAGCGCCATCTAC”: the binding signal (RPM ratio (pull-down/input)) was 1.34. Take “GATGATTGTTCTCCCAGCTGATGAATTTATAGTGTCGAGTAAACAAATTTTCCTAATCTTTCTGTTCAAGCGCCATCTAC”: the binding signal (RPM ratio (pull-down/input)) was found to be 2.71.

Take “GATGATTGTTCTCCCAGCTGATGAATTGTCCCTTTCGAGTAAACAAATTTTCCTAATCTTTCTGTTCAAGCGCCATCTAC”: the binding signal (RPM ratio (pull-down/input)) turned out to be 0.459. In the case of “GATGATTGTTCTCCCAGCTGATGAATTCAAAGCCTCGAGTAAACAAATTTTCCTAATCTTTCTGTTCAAGCGCCATCTAC”, the binding signal (RPM ratio (pull-down/input)) stood at 0.326.

“GATGATTGTTCTCCCAGCTGATGAATTCCTCGGATCGAGTAAACAAATTTTCCTAATCTTTCTGTTCAAGCGCCATCTAC”: the binding signal (RPM ratio (pull-down/input)) was 0.164. With “GATGATTGTTCTCCCAGCTGATGAATTCTCCGCTTCGAGTAAACAAATTTTCCTAATCTTTCTGTTCAAGCGCCATCTAC”, the binding signal (RPM ratio (pull-down/input)) was determined as 0.26.

On to “GATGATTGTTCTCCCAGCTGATGAATTCCTGACATCGAGTAAACAAATTTTCCTAATCTTTCTGTTCAAGCGCCATCTAC”, for which the binding signal (RPM ratio (pull-down/input)) worked out at 0.355. The value for “GATGATTGTTCTCCCAGCTGATGAATTGCCTATTTCGAGTAAACAAATTTTCCTAATCTTTCTGTTCAAGCGCCATCTAC” was 0.776; that for “GATGATTGTTCTCCCAGCTGATGAATTCACCCTATCGAGTAAACAAATTTTCCTAATCTTTCTGTTCAAGCGCCATCTAC” was 0.294. For the sequence “GATGATTGTTCTCCCAGCTGATGAATTAGGATACTCGAGTAAACAAATTTTCCTAATCTTTCTGTTCAAGCGCCATCTAC”, the binding signal (RPM ratio (pull-down/input)) is 0.847. On to “GATGATTGTTCTCCCAGCTGATGAATTGAATAGTTCGAGTAAACAAATTTTCCTAATCTTTCTGTTCAAGCGCCATCTAC”, for which the binding signal (RPM ratio (pull-down/input)) worked out at 0.606. With “GATGATTGTTCTCCCAGCTGATGAATTAAAATCTTCGAGTAAACAAATTTTCCTAATCTTTCTGTTCAAGCGCCATCTAC”, the binding signal (RPM ratio (pull-down/input)) was 0.242.

As for “GATGATTGTTCTCCCAGCTGATGAATTCTTTTACTCGAGTAAACAAATTTTCCTAATCTTTCTGTTCAAGCGCCATCTAC”, the binding signal (RPM ratio (pull-down/input)) was determined as 0.312.

For the sequence “GATGATTGTTCTCCCAGCTGATGAATTACGGGTTTCGAGTAAACAAATTTTCCTAATCTTTCTGTTCAAGCGCCATCTAC”, the binding signal (RPM ratio (pull-down/input)) is 0.707. In the case of “GATGATTGTTCTCCCAGCTGATGAATTAATGAGGTCGAGTAAACAAATTTTCCTAATCTTTCTGTTCAAGCGCCATCTAC”, the binding signal (RPM ratio (pull-down/input)) is 0.343. The value for “GATGATTGTTCTCCCAGCTGATGAATTCTGGTTCTCGAGTAAACAAATTTTCCTAATCTTTCTGTTCAAGCGCCATCTAC” was 0.744. In the case of “GATGATTGTTCTCCCAGCTGATGAATTACCATCGTCGAGTAAACAAATTTTCCTAATCTTTCTGTTCAAGCGCCATCTAC”, the binding signal (RPM ratio (pull-down/input)) was 0.481.

As for “GATGATTGTTCTCCCAGCTGATGAATTGCGACTGTCGAGTAAACAAATTTTCCTAATCTTTCTGTTCAAGCGCCATCTAC”, the binding signal (RPM ratio (pull-down/input)) was found to be 1.55. The value for “GATGATTGTTCTCCCAGCTGATGAATTGTAGGCTTCGAGTAAACAAATTTTCCTAATCTTTCTGTTCAAGCGCCATCTAC” was 0.516; that for “GATGATTGTTCTCCCAGCTGATGAATTATCCTTGTCGAGTAAACAAATTTTCCTAATCTTTCTGTTCAAGCGCCATCTAC” was 0.279; that for “GATGATTGTTCTCCCAGCTGATGAATTATAATTGTCGAGTAAACAAATTTTCCTAATCTTTCTGTTCAAGCGCCATCTAC” was 1.7. Regarding “GATGATTGTTCTCCCAGCTGATGAATTCAAGCTGTCGAGTAAACAAATTTTCCTAATCTTTCTGTTCAAGCGCCATCTAC”, the binding signal (RPM ratio (pull-down/input)) was 0.499. On to “GATGATTGTTCTCCCAGCTGATGAATTTTCACGGTCGAGTAAACAAATTTTCCTAATCTTTCTGTTCAAGCGCCATCTAC”, for which the binding signal (RPM ratio (pull-down/input)) amounted to 0.19. With “GATGATTGTTCTCCCAGCTGATGAATTAGCCATATCGAGTAAACAAATTTTCCTAATCTTTCTGTTCAAGCGCCATCTAC”, the binding signal (RPM ratio (pull-down/input)) stood at 0.63. As to “GATGATTGTTCTCCCAGCTGATGAATTTAGTACGTCGAGTAAACAAATTTTCCTAATCTTTCTGTTCAAGCGCCATCTAC”, the binding signal (RPM ratio (pull-down/input)) amounted to 0.695. Take “GATGATTGTTCTCCCAGCTGATGAATTCTACGTTTCGAGTAAACAAATTTTCCTAATCTTTCTGTTCAAGCGCCATCTAC”: the binding signal (RPM ratio (pull-down/input)) was 0.448.

For “GATGATTGTTCTCCCAGCTGATGAATTCTAACATTCGAGTAAACAAATTTTCCTAATCTTTCTGTTCAAGCGCCATCTAC”, the binding signal (RPM ratio (pull-down/input)) worked out at 0.754. In the case of “GATGATTGTTCTCCCAGCTGATGAATTGGCGTCCTCGAGTAAACAAATTTTCCTAATCTTTCTGTTCAAGCGCCATCTAC”, the binding signal (RPM ratio (pull-down/input)) stood at 1.06. Take “GATGATTGTTCTCCCAGCTGATGAATTATCCAACTCGAGTAAACAAATTTTCCTAATCTTTCTGTTCAAGCGCCATCTAC”: the binding signal (RPM ratio (pull-down/input)) worked out at 0.246. In the case of “GATGATTGTTCTCCCAGCTGATGAATTTCGCCTTTCGAGTAAACAAATTTTCCTAATCTTTCTGTTCAAGCGCCATCTAC”, the binding signal (RPM ratio (pull-down/input)) is 5.39.

For the sequence “GATGATTGTTCTCCCAGCTGATGAATTAATCGGCTCGAGTAAACAAATTTTCCTAATCTTTCTGTTCAAGCGCCATCTAC”, the binding signal (RPM ratio (pull-down/input)) worked out at 0.258. For “GATGATTGTTCTCCCAGCTGATGAATTCCACCCCTCGAGTAAACAAATTTTCCTAATCTTTCTGTTCAAGCGCCATCTAC”, the binding signal (RPM ratio (pull-down/input)) was 0.285.
